# Measurements as given in PubChem BioAssay AID2101 (National Center for Advancing Translational Sciences (NCATS), 2009).
# Among all 330,000 compounds or so, about 300 (0.091%) were called active. The shares of active, inactive and inconclusive entries below differ from those in the screen. The call rests on the fitted dose curve; in most records, active means well fitted inhibition curve with a large enough effect; inconclusive means small, poorly fitted or top-dose-only effect, or effect the other way, or another doubt; inactive means no such curve, though single readings can be large or run the other way. Potencies of inconclusive entries are left out as doubtful fits.
# Target: Lysosomal acid glucosylceramidase (Homo sapiens) (UniProt P04062)
# Test: qHTS Assay for Inhibitors and Activators of N370S glucocerebrosidase as a Potential Chaperone Treatment of Gaucher Disease;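 on activity change, negative = inhibition: 0% = full enzyme activity and -100% = no enzyme basal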
# Settings: N370S GC spleen homogenate, 4MU-glucoside fluorescence; activity change, negative = inhibition: at 59.4 µM (top of the series) unless noted
# Potency means the concentration at half of the fitted maximal effect.
Structure (SMILES),Potency,"activity change, negative = inhibition"
CC(=O)N1CCN(c2ccc(NC(=O)c3ccc4c(c3)OCCO4)cc2Cl)CC1,"inconclusive [inhibitor, partial curve]",
Cc1cc(NC(=O)OC2CCCCC2)ccc1[N+](=O)[O-],"inconclusive [activator, single point]",
NS(=O)(=O)c1ccc(N=Nc2c(=O)[nH]n3c(=O)c4c([nH]c23)CCCC4)cc1,"inconclusive [inhibitor, single point]",
Cc1ccc2[nH]c(=O)c(C(c3nnnn3C3CCCC3)N3CCCc4ccccc43)cc2c1 (stereo not drawn),"inconclusive [activator, single point]",
Cn1nc(C(=O)NNC(=O)COc2ccccc2)c2ccccc2c1=O,"inconclusive [inhibitor, single point]",
CCOc1ccc(Cl)cc1CNCCNCCO,"inconclusive [inhibitor, partial curve]",
Cn1cnnc1SCC(=O)N1N=C2/C(=C/c3ccco3)CCCC2C1c1ccco1 (stereo not drawn),"inconclusive [inhibitor, partial curve]",
COc1ccc(-c2nnc(CSc3nc4ccccc4c(=O)n3CC3CCCO3)o2)cc1OC (stereo not drawn),"inconclusive [activator, partial curve]",
Nc1ccc(O)cc1,"inconclusive [inhibitor, partial curve]",
CCOC(=O)N1CCN(C(=O)CCS(=O)(=O)c2ccc3c(c2)CCN3C(=O)CC)CC1,,inactive: -13.9%
CCc1nc(Sc2nnnn2-c2ccccc2)c2c3c(sc2n1)CCCC3,"inconclusive [activator, single point]",
O=C(NCCCN1CCOCC1)c1ccc2c(c1)N(Cc1c(F)cccc1Cl)C(=O)c1ccccc1S2,"inconclusive [inhibitor, single point]",
CSc1ccc(S(=O)(=O)N2CC(=O)Nc3ccccc32)cc1,"inconclusive [inhibitor, partial curve]",
COc1ccc(C(=O)NCCNc2nc3ccc(C)cc3cc2C#N)cc1,"inconclusive [activator, partial curve]",
COC(=O)NC(CCc1ccccc1)C(C(=O)OC)C(=O)OC (stereo not drawn),,inactive: 8.14%
COC(=O)[C@@H](Cc1c[nH]c2ccccc12)NC(=O)c1ccc2c(c1)OCO2,,inactive: -4.22%
COc1cc(/C=N/NC(=O)/C(=C/c2ccccc2)CCO)ccc1O,"inconclusive [inhibitor, single point]",
CC(C)C[C@H](NC(=O)c1[nH]cnc1C(=O)Nc1ccccc1)C(=O)OC(C)(C)C,"inconclusive [activator, partial curve]",
